Assay results from the supplement of paper PMC11417369.
This is one part of the list.

The sequences below were run on PfAP2-HC AP2 domain (GST-tagged) (assay: gcPBM binding intensity (ln(normalized median fluorescence intensity)); higher = stronger DNA binding).
Procedure, shortened: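 An Agilent 4 × 180k array carrying primer-extended double-stranded 36-bp intergenic genomic probes and negative controls received GST-tagged P. falciparum DNA-binding domains expressed in E. coli, about 25 μg on average, for 1 h. The binding buffer contained 1× PBS, 1% milk, 0.2 mg/ml BSA, 0.5% salmon testes DNA and 0.03% Triton X-100. Binding intensity is the top Masliner-normalised natural-log median intensity across replicate spots of either probe orientation, read after Alexa488 anti-GST antibody staining and a 488 nm scan.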

Sequence	gcPBM binding intensity (ln)
AATCAAAACATTAAAAAGAAAAAATATATATATATA [CACACA_negctrl_site366]	9.29
ATATAGATCTATAATACACACTTATGAAATGTCTAA [CACACA_site6946]	9.73
TTGTTTCCGATGAAAGAAAGGAAATTATAATATATC [GTGCAC_negctrl_site516]	9.29
GTCTCCTTTATTTTTGGTACAGATAAGATAAAAGGA [XGTACX_site1591]	9.32
GTGTTCATATATAGCCGTACATATGTCTTATGAACG [XGTACX_site5647]	9.59
ATTATCAAAAAAAAAAAAAAAAAAAAAAAAAAAAAA [CACACA_negctrl_site1118]	8.87
TATAACATTATTTTGTGTACACATTCGGTTATATTA [XGTACX_site6310]	10
AATCAAAATATATCTACACACATTTAAGTAACCCAT [CACACA_site5846]	10.1
TTTGTGCTTATCCTAACACACACAACATATAAGAAA [CACACA_site9091]	9.83
ATATATATTTTTATAACACACAATGATGTACATTAC [CACACA_site1076]	9.79
TGTGTAGCTAGGGGGTTGCTAATTTTTGTTTTGACC [CACACA_negctrl_site634]	9.93
TTATATATACCATAATGTACTCTATTATATAAAAAA [XGTACX_site7464]	9.38
AGAAAAAACAAAAGAGAAATGAAAAAAAAAAAAAAA [XGTACX_negctrl_site482]	8.98
TAAAATAATATTTATGTGCACATATAATTATTAATT	9.6
ATCATAACTTGATACGCACACGTTATATAAATAAAA [CACACA_site4955]	9.67
TTATGTTGCGAGTTCTTAAGATATAAAAAATTCTTC [GTGCAC_negctrl_site45]	9.38
TGAGAATAAAAAAAAGGGATTATTAGATTTCTCCTT [TGCATGCA_negctrl_site326]	9.31
AAGACAAATTGTGACACACACAAAAAAAAAAAAAAA [CACACA_site3727]	9.85
AAAAAAATAAGGTGCACACAAAAAAAAAAAAAAAAA [CACACA_site812]	9.57
ATTCAATAAACGTATTGTACAAAAGAACGATATATT [XGTACX_site2533]	9.78
TATTGGATCACACAAAAATGTATAAATAAATAGAAA [TGCATGCA_negctrl_site490]	9.69
TACCTTATATTATATACACACATATAATATAATATA [CACACA_site1328]	9.78
GATTCATTTCGTAATACACACAACAAATATTTCAAA [CACACA_site1772]	9.68
AATGTAAATAAGTGTACACATATATAATACATACAT [CACACA_site4938]	9.99
